pIC50: −log10 of the molar value. By IC50 is meant the dose at which the fit gives 50% viability; fits outside the tested doses are given as limits. AUC, from the same fit, is the share of area under the viability curve across the 256-fold dose range: 1 means no effect, lower means more sensitive. For some assays here: A top dose marked as inferred is not printed in the source and was worked back from the curve model. For some assays here: Where an entry number is given, a second screen of the drug exists; the two often differ.
Columns and labels:
Test in all cases: Viability of human cancer cell lines after 72 h of drug (GDSC screen)
Thapsigargin = compound: C/C=C(/C)C(=O)O[C@H]1C(C)=C2[C@H]([C@@H]1OC(=O)CCCCCCC)[C@@](C)(OC(C)=O)C[C@H](OC(=O)CCC)[C@@]1(O)[C@H]2OC(=O)[C@@]1(C)O [Thapsigargin]; settings: top dose 0.512 µM; top dose inferred
Method: (§1)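 Human cancer cell lines in 384-well plates, medium with 10% serum, drug for 72 h over a 256-fold dose range (nine 2-fold or five 4-fold steps up to the top dose). Adherent lines were fixed and stained with the nucleic acid dye Syto60, suspension lines read with resazurin; signal relative to control wells, capped at 0 and 100%. One two-parameter sigmoid per drug and line, fitted in a mixed model over all curves with the slope shared within a line.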

QL-X-138 = compound: C=CC(=O)Nc1cc(-n2c(=O)ccc3cnc4ccc(-c5cn[nH]c5)cc4c32)ccc1C [QL-X-138]; settings: top dose 10.24 µM; top dose inferred
Method: as §1

GSK269962A = compound: CCn1c(-c2nonc2N)nc2cnc(Oc3cccc(NC(=O)c4ccc(OCCN5CCOCC5)cc4)c3)cc21 [GSK269962A]; settings: top dose 5 µM; screen: GDSC drug entry 1192; top dose inferred
Method: as §1

(5Z)-7-Oxozeaenol = compound: COc1cc(O)c2c(c1)/C=C/C[C@H](O)[C@H](O)C(=O)/C=C\C[C@H](C)OC2=O [(5Z)-7-Oxozeaenol]; settings: top dose 10 µM; top dose inferred
Method: as §1

CP466722 = compound: COc1cc2ncnc(-n3nc(-c4ccccn4)nc3N)c2cc1OC [CP466722]; settings: top dose 16 µM; top dose inferred
Method: as §1

ABT-888 = compound: C[C@]1(c2nc3c(C(N)=O)cccc3[nH]2)CCCN1 [ABT-888]; settings: top dose 5 µM; top dose inferred
Method: as §1

ABT-869 = compound: Cc1ccc(F)c(NC(=O)Nc2ccc(-c3cccc4[nH]nc(N)c34)cc2)c1 [ABT-869]; settings: top dose 1.024 µM; top dose inferred
Method: as §1

CHIR-99021 = compound: Cc1cnc(-c2cnc(NCCNc3ccc(C#N)cn3)nc2-c2ccc(Cl)cc2Cl)[nH]1 [CHIR-99021]
Method: as §1

KU-55933 = compound: O=c1cc(-c2cccc3c2Sc2ccccc2S3)oc(N2CCOCC2)c1 [KU-55933]; settings: top dose 10 µM
Method: as §1

MPS-1-IN-1 = compound: COc1cc(N2CCC(O)CC2)ccc1Nc1cc(Nc2ccccc2S(=O)(=O)C(C)C)c2cc[nH]c2n1 [MPS-1-IN-1]; settings: top dose 20 µM; top dose inferred
Method: as §1

Zibotentan = compound: COc1nc(C)cnc1NS(=O)(=O)c1cccnc1-c1ccc(-c2nnco2)cc1 [Zibotentan]; settings: top dose 20 µM; top dose inferred
Method: as §1

[1] = top dose 2.56 µM, screen: GDSC drug entry 154
[2] = top dose 10 µM, screen: GDSC drug entry 1241, top dose inferred

Cell Line | AUC (Thapsigargin) | pIC50 (Thapsigargin) | AUC (QL-X-138) | pIC50 (QL-X-138) | AUC (GSK269962A) | pIC50 (GSK269962A) | AUC ((5Z)-7-Oxozeaenol) | pIC50 ((5Z)-7-Oxozeaenol) | AUC (CP466722) | pIC50 (CP466722) | AUC (ABT-888) | pIC50 (ABT-888) | AUC (ABT-869) | pIC50 (ABT-869) | AUC (CHIR-99021; [1]) | pIC50 (CHIR-99021; [1]) | AUC (CHIR-99021; [2]) | pIC50 (CHIR-99021; [2]) | AUC (KU-55933) | pIC50 (KU-55933) | AUC (MPS-1-IN-1) | pIC50 (MPS-1-IN-1) | AUC (Zibotentan) | pIC50 (Zibotentan)
H290 (mesothelioma, adherent) | 0.426 | 7.69 | 0.868 | 5.09 | 0.906 | < 5.30 | 0.59 | 5.97 | 0.699 | 5.47 | 0.989 | < 5.30 | 0.989 | < 5.99 | 0.988 | < 5.59 | 0.983 | < 5.00 | 0.986 | < 5.00 |  |  |  | 
HT-1080 (fibrosarcoma, adherent) | 0.137 | 8.56 | 0.808 | 5.33 | 0.585 | 6.28 | 0.584 | 5.99 | 0.905 | < 4.80 | 0.985 | < 5.30 |  |  | 0.985 | < 5.59 | 0.872 | 5.11 | 0.969 | < 5.00 | 0.987 | < 4.70 | 0.989 | < 4.70
IGR-37 (melanoma, adherent) | 0.23 | 8.24 | 0.989 | < 4.99 | 0.892 | < 5.30 | 0.032 | > 7.41 | 0.986 | < 4.80 | 0.988 | < 5.30 |  |  | 0.988 | < 5.59 | 0.988 | < 5.00 | 0.935 | < 5.00 | 0.897 | < 4.70 | 0.986 | < 4.70
KYSE-140 (oesophagus, adherent) | 0.205 | 8.43 | 0.671 | 5.69 | 0.982 | < 5.30 |  |  | 0.662 | 5.52 | 0.984 | < 5.30 | 0.982 | < 5.99 | 0.98 | < 5.59 |  |  | 0.926 | < 5.00 | 0.886 | < 4.70 | 0.982 | < 4.70
LCLC-97TM1 (large cell lung carcinoma, adherent) | 0.166 | 8.57 | 0.448 | 6.34 | 0.972 | < 5.30 | 0.695 | 5.63 | 0.566 | 5.81 | 0.972 | < 5.30 | 0.964 | < 5.99 |  |  |  |  | 0.93 | < 5.00 | 0.776 | 5.06 | 0.98 | < 4.70
LK-2 (lung squamous cell carcinoma, adherent) | 0.258 | 8.17 | 0.848 | 5.16 | 0.683 | 6.01 | 0.845 | 5.18 | 0.809 | 5.11 | 0.989 | < 5.30 | 0.985 | < 5.99 |  |  |  |  | 0.975 | < 5.00 | 0.893 | < 4.70 | 0.989 | < 4.70
MIA-PaCa-2 (pancreas, adherent) | 0.25 | 8.25 | 0.982 | < 4.99 |  |  |  |  | 0.981 | < 4.80 | 0.957 | < 5.30 | 0.981 | < 5.99 | 0.816 | 5.80 |  |  | 0.883 | < 5.00 | 0.985 | < 4.70 | 0.981 | < 4.70
NCI-H358 (lung adenocarcinoma, adherent) | 0.2 | 8.44 | 0.562 | 6.02 | 0.916 | < 5.30 | 0.76 | 5.41 | 0.727 | 5.32 | 0.983 | < 5.30 | 0.971 | < 5.99 |  |  |  |  | 0.925 | < 5.00 | 0.778 | 5.05 | 0.98 | < 4.70
NCI-H647 (non-small cell lung carcinoma, adherent) | 0.232 | 8.29 | 0.55 | 6.06 |  |  |  |  | 0.66 | 5.55 | 0.973 | < 5.30 | 0.985 | < 5.99 | 0.981 | < 5.59 |  |  | 0.967 | < 5.00 | 0.925 | < 4.70 | 0.982 | < 4.70
OCUM-1 (stomach, adherent) | 0.316 | 8.04 | 0.941 | < 4.99 |  |  |  |  | 0.962 | < 4.80 | 0.987 | < 5.30 | 0.984 | < 5.99 | 0.986 | < 5.59 |  |  | 0.984 | < 5.00 | 0.949 | < 4.70 | 0.986 | < 4.70
PC-14 (lung adenocarcinoma, adherent) | 0.298 | 8.03 | 0.763 | 5.48 | 0.958 | < 5.30 | 0.828 | 5.28 | 0.748 | 5.33 | 0.988 | < 5.30 | 0.982 | < 5.99 |  |  |  |  | 0.973 | < 5.00 | 0.891 | 4.72 | 0.987 | < 4.70
RPMI-7951 (melanoma, adherent) | 0.223 | 8.29 | 0.528 | 6.12 | 0.69 | 5.98 |  |  | 0.707 | 5.42 | 0.986 | < 5.30 | 0.964 | < 5.99 | 0.898 | < 5.59 |  |  | 0.987 | < 5.00 | 0.847 | 4.85 | 0.987 | < 4.70
SW48 (large intestine, adherent) | 0.161 | 8.53 | 0.906 | < 4.99 | 0.65 | 6.09 | 0.595 | 5.94 | 0.873 | 4.81 | 0.978 | < 5.30 | 0.778 | 6.38 | 0.954 | < 5.59 | 0.937 | < 5.00 | 0.953 | < 5.00 |  |  | 0.987 | < 4.70

— the supplement of paper PMC4967469
